Laboratory results: the supplement of paper PMC4967469
IC50 is the fitted dose that halves viability relative to control wells, and lower means more sensitive; a limit (>, <) means that the fit lies beyond the doses tested. The AUC spans the tested range (256-fold, ending at the top dose) of the same fit; values near 1 show little effect. For some of these results: The top dose, if marked as inferred, was derived from the fitted curves, not read from the paper. For some of these results: Drugs with an entry number were screened twice under separate entries, and the two screens often disagree.

What was measured:
Experiment in all cases: Viability of human cancer cell lines after 72 h of drug (GDSC screen)
PI-103 = compound: Oc1cccc(-c2nc(N3CCOCC3)c3oc4ncccc4c3n2)c1 [PI-103]; details: top dose 10.24 µM
Protocol: (§1)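 Human cancer cell lines in 384-well plates, medium with 10% serum, drug for 72 h over a 256-fold dose range (nine 2-fold or five 4-fold steps up to the top dose). Adherent lines were fixed and stained with the nucleic acid dye Syto60, suspension lines read with resazurin; signal relative to control wells, capped at 0 and 100%. One two-parameter sigmoid per drug and line, fitted in a mixed model over all curves with the slope shared within a line.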

SB-505124 = compound: Cc1cccc(-c2[nH]c(C(C)(C)C)nc2-c2ccc3c(c2)OCO3)n1 [SB-505124]; details: top dose 10 µM; top dose inferred
Protocol: as §1

UNC0638 = compound: COc1cc2c(NC3CCN(C(C)C)CC3)nc(C3CCCCC3)nc2cc1OCCCN1CCCC1 [UNC0638]
Protocol: as §1

Tretinoin = compound: CC1=C(/C=C/C(C)=C/C=C/C(C)=C/C(=O)O)C(C)(C)CCC1 [Tretinoin]; details: top dose 10 µM; top dose inferred
Protocol: as §1

BX-795 = compound: O=C(NCCCNc1nc(Nc2cccc(NC(=O)N3CCCC3)c2)ncc1I)c1cccs1 [BX-795]; details: top dose 5 µM; top dose inferred
Protocol: as §1

GSK690693 = compound: CCn1c(-c2nonc2N)nc2c(C#CC(C)(C)O)ncc(OC[C@H]3CCCNC3)c21 [GSK690693]; details: top dose 10.24 µM; top dose inferred
Protocol: as §1

[1] = top dose 20 µM, screen: GDSC drug entry 1236, top dose inferred
[2] = top dose 40 µM, screen: GDSC drug entry 245

Cell Line | AUC (PI-103) | IC50 (PI-103) [µM] | AUC (SB-505124) | IC50 (SB-505124) [µM] | AUC (UNC0638; [1]) | IC50 (UNC0638; [1]) [µM] | AUC (UNC0638; [2]) | IC50 (UNC0638; [2]) [µM] | AUC (Tretinoin) | IC50 (Tretinoin) [µM] | AUC (BX-795) | IC50 (BX-795) [µM] | AUC (GSK690693) | IC50 (GSK690693) [µM]
COR-L321 (lung, suspension) | 0.571 | 1 | 0.985 | > 10 | 0.808 | 10.3 | 0.663 | 7.08 | 0.955 | > 10 | 0.865 | 4.39 | 0.956 | > 10.2
CP50-MEL-B (melanoma, adherent) | 0.871 | 9.44 | 0.986 | > 10 | 0.816 | 10.9 | 0.784 | 16.8 | 0.879 | > 10 | 0.909 | > 5 | 0.985 | > 10.2
CS1 (bone, adherent) | 0.246 | 0.107 | 0.967 | > 10 | 0.792 | 10.2 | 0.759 | 15.5 | 0.984 | > 10 | 0.819 | 3.28 | 0.893 | > 10.2
Ca9-22 (head and neck, adherent) | 0.645 | 1.56 | 0.96 | > 10 | 0.854 | 13.9 | 0.936 | > 40 | 0.981 | > 10 | 0.821 | 2.62 | 0.984 | > 10.2
Ca-Ski (cervix, adherent) | 0.142 | 0.0404 | 0.962 | > 10 | 0.71 | 5.29 | 0.688 | 9.05 | 0.979 | > 10 | 0.864 | > 5 | 0.58 | 1.09
CaR-1 (large intestine, adherent) | 0.743 | 4.64 | 0.975 | > 10 | 0.975 | > 20 | 0.931 | > 40 | 0.965 | > 10 | 0.866 | > 5 | 0.978 | > 10.2
Calu-3 (lung adenocarcinoma, adherent) | 0.922 | > 10.2 | 0.98 | > 10 | 0.955 | > 20 | 0.909 | > 40 | 0.961 | > 10 | 0.919 | > 5 | 0.91 | > 10.2
Caov-4 (ovary, adherent) | 0.81 | 8.82 | 0.973 | > 10 | 0.976 | > 20 | – | – | 0.959 | > 10 | 0.971 | > 5 | 0.98 | > 10.2
Capan-2 (pancreas, adherent) | 0.705 | 2.78 | 0.908 | > 10 | 0.836 | 17.5 | 0.919 | > 40 | 0.972 | > 10 | 0.928 | > 5 | 0.889 | > 10.2
D-392MG (glioma, adherent) | 0.743 | 4.19 | 0.978 | > 10 | 0.895 | > 20 | 0.835 | > 40 | 0.951 | > 10 | 0.84 | > 5 | 0.963 | > 10.2
D-423MG (glioma, adherent) | 0.429 | 0.391 | 0.978 | > 10 | 0.821 | 15.1 | 0.753 | 16.1 | 0.974 | > 10 | 0.732 | 1.68 | 0.853 | > 10.2
D-542MG (glioma, adherent) | 0.818 | 7.52 | 0.981 | > 10 | 0.845 | 19.6 | 0.943 | > 40 | 0.984 | > 10 | 0.925 | > 5 | 0.984 | > 10.2
D-566MG (glioma, adherent) | 0.558 | 0.921 | 0.874 | 9.52 | 0.873 | 18.7 | 0.842 | 27.6 | 0.908 | > 10 | 0.733 | 1.43 | 0.962 | > 10.2
DAN-G (pancreas, adherent) | 0.489 | 0.599 | 0.991 | > 10 | 0.851 | 12.4 | 0.871 | 29.7 | 0.99 | > 10 | 0.92 | > 5 | 0.983 | > 10.2
DBTRG-05MG (glioma, adherent) | 0.789 | 5.41 | 0.971 | > 10 | 0.961 | > 20 | 0.759 | 16.2 | 0.964 | > 10 | 0.881 | > 5 | 0.947 | > 10.2
DK-MG (glioma, adherent) | 0.662 | 2.26 | 0.975 | > 10 | 0.792 | 14.5 | 0.815 | 37.3 | 0.978 | > 10 | 0.721 | 1.84 | 0.978 | > 10.2
DMS-273 (small cell lung carcinoma, adherent) | 0.229 | 0.0984 | 0.983 | > 10 | 0.816 | 12 | 0.766 | 15.5 | 0.95 | > 10 | 0.869 | > 5 | 0.555 | 0.911
DOV13 (ovary, adherent) | 0.967 | > 10.2 | 0.861 | > 10 | 0.776 | 9.22 | 0.799 | 22.6 | 0.927 | > 10 | 0.801 | 2.9 | 0.967 | > 10.2
Detroit562 (head and neck, adherent) | 0.89 | > 10.2 | 0.987 | > 10 | 0.894 | > 20 | 0.986 | > 40 | 0.978 | > 10 | 0.819 | 2.71 | 0.979 | > 10.2
DoTc2-4510 (cervix, adherent) | 0.941 | > 10.2 | 0.987 | > 10 | 0.963 | > 20 | 0.868 | 33.4 | 0.938 | > 10 | 0.801 | 2.3 | 0.986 | > 10.2

Cell Line | AUC (PI-103) | IC50 (PI-103) [µM] | AUC (SB-505124) | IC50 (SB-505124) [µM] | AUC (UNC0638; [1]) | IC50 (UNC0638; [1]) [µM] | AUC (UNC0638; [2]) | IC50 (UNC0638; [2]) [µM] | AUC (Tretinoin) | IC50 (Tretinoin) [µM] | AUC (BX-795) | IC50 (BX-795) [µM] | AUC (GSK690693) | IC50 (GSK690693) [µM]
EBC-1 (lung squamous cell carcinoma, adherent) | 0.527 | 0.766 | 0.981 | > 10 | 0.912 | > 20 | 0.982 | > 40 | 0.883 | > 10 | 0.866 | > 5 | 0.976 | > 10.2
ECC10 (stomach, suspension) | 0.786 | 4.63 | 0.914 | > 10 | 0.629 | 2.88 | 0.657 | 6.99 | 0.891 | > 10 | 0.772 | 2.02 | 0.89 | > 10.2
EFM-192A (breast, adherent) | 0.985 | > 10.2 | 0.944 | > 10 | 0.881 | > 20 | 0.839 | 31.9 | 0.806 | 5.79 | 0.937 | > 5 | 0.985 | > 10.2
EFO-21 (ovary, adherent) | 0.912 | > 10.2 | 0.941 | > 10 | 0.951 | > 20 | 0.759 | 20 | 0.954 | > 10 | 0.899 | > 5 | 0.91 | > 10.2
EFO-27 (ovary, adherent) | 0.613 | 1.42 | 0.976 | > 10 | 0.806 | 13.4 | 0.749 | 15.9 | 0.957 | > 10 | 0.895 | > 5 | 0.717 | 3.13
EGI-1 (biliary tract, adherent) | 0.964 | > 10.2 | 0.979 | > 10 | 0.961 | > 20 | 0.962 | > 40 | 0.914 | > 10 | 0.858 | > 5 | 0.982 | > 10.2
EMC-BAC-1 (lung adenocarcinoma, adherent) | 0.553 | 0.909 | 0.964 | > 10 | 0.758 | 7.86 | 0.752 | 14.9 | 0.966 | > 10 | 0.81 | 3.09 | 0.888 | > 10.2
EMC-BAC-2 (lung adenocarcinoma, adherent) | 0.45 | 0.455 | 0.969 | > 10 | 0.811 | 13.1 | 0.834 | 33.1 | 0.977 | > 10 | 0.669 | 1.02 | 0.98 | > 10.2
EN (endometrium, adherent) | 0.646 | 1.82 | 0.982 | > 10 | 0.852 | > 20 | 0.713 | 11.9 | 0.984 | > 10 | 0.868 | > 5 | 0.784 | 5.61
ESO26 (oesophagus, adherent) | 0.887 | > 10.2 | 0.725 | 2.59 | 0.706 | 4.58 | 0.622 | 5.3 | 0.971 | > 10 | 0.883 | 4.82 | 0.893 | > 10.2
ESO51 (oesophagus, semi-adherent) | 0.975 | > 10.2 | 0.942 | > 10 | 0.927 | > 20 | 0.813 | 33.9 | 0.907 | > 10 | 0.913 | > 5 | 0.928 | > 10.2
ESS-1 (endometrium, adherent) | 0.762 | 3.32 | 0.989 | > 10 | 0.787 | 7.77 | 0.676 | 7.29 | 0.99 | > 10 | 0.945 | > 5 | 0.98 | > 10.2
EW-7 (Ewing sarcoma, semi-adherent) | 0.535 | 0.789 | 0.969 | > 10 | 0.766 | 6.51 | 0.605 | 4.68 | 0.944 | > 10 | 0.902 | > 5 | 0.397 | 0.347
FADU (head and neck, adherent) | 0.902 | > 10.2 | 0.983 | > 10 | 0.953 | > 20 | 0.97 | > 40 | 0.988 | > 10 | 0.884 | > 5 | 0.988 | > 10.2
FLO-1 (oesophagus, adherent) | 0.6 | 1.36 | 0.954 | > 10 | 0.826 | > 20 | 0.837 | > 40 | 0.967 | > 10 | 0.804 | 3.98 | 0.932 | > 10.2
FTC-133 (thyroid, adherent) | 0.819 | 6.6 | 0.964 | > 10 | 0.967 | > 20 | 0.979 | > 40 | 0.966 | > 10 | 0.831 | 3.6 | 0.983 | > 10.2
FU97 (stomach, adherent) | 0.986 | > 10.2 | 0.962 | > 10 | 0.984 | > 20 | 0.862 | 35.8 | 0.895 | > 10 | 0.85 | 3.98 | 0.942 | > 10.2
FU-OV-1 (ovary, adherent) | 0.559 | 0.978 | 0.941 | > 10 | 0.978 | > 20 | 0.912 | > 40 | 0.972 | > 10 | 0.973 | > 5 | 0.982 | > 10.2
G-292 Clone A141B1 (osteosarcoma, adherent) | 0.44 | 0.399 | 0.971 | > 10 | 0.898 | > 20 | 0.813 | > 40 | 0.448 | 0.415 | 0.749 | 2.56 | 0.975 | > 10.2
